The source of these data is PMC4336329 (PLoS ONE, 2015).

Out of some 310,000 compounds screened, about 2,200 (0.71%) showed an effect of 50% or more. Effects have a minus sign here. Some of the results follow. Where a SMILES comes first, the peptide text is derived from it. [ ]: non-standard residue; d: D form. ξ: configuration not given here. ξV = CC(C)C(N)C(=O)O

Chain of human ether-à-go-go-related gene (hERG) potassium channel (Q12809 whole entry, looked up): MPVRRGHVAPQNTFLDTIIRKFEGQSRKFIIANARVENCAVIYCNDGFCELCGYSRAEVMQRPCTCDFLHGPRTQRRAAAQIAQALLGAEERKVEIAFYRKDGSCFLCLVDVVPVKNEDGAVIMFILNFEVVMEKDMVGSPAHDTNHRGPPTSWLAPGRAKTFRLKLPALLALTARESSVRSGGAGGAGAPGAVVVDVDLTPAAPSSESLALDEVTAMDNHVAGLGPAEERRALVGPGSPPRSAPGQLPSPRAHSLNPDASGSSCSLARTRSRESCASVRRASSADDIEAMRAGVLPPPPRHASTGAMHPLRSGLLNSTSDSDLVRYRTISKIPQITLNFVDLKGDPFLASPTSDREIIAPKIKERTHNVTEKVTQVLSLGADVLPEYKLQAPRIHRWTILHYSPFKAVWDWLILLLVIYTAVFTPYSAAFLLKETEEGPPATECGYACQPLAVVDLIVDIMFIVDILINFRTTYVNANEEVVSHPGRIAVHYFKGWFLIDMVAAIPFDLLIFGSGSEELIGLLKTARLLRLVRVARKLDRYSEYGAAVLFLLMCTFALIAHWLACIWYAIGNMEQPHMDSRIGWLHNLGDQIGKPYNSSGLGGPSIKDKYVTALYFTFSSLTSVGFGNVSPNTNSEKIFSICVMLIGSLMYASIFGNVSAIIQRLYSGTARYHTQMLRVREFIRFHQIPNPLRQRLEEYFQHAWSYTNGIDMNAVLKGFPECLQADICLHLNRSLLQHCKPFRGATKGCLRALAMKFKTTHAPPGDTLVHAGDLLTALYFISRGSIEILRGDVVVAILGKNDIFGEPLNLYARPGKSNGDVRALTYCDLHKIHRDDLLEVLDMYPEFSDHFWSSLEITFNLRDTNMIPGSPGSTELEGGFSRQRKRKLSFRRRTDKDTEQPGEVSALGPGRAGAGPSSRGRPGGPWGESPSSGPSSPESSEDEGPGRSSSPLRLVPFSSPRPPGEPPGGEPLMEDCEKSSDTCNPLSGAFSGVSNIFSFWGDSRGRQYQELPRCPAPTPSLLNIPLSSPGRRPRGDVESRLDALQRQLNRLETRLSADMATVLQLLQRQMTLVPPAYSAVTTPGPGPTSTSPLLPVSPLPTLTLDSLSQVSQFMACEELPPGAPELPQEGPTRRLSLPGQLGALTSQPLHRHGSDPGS

This assay addresses human ether-à-go-go-related gene (hERG) potassium channel (human, UniProt Q12809). As to the kind of experiment: primary screen, population patch clamp on CHO cells stably expressing hERG.
For `COc1ccccc1C1CCN(C(=O)c2cccs2)CC1`, the “hERG current change (%, negative = inhibition) at 1uM” value is listed as 7.81%. On to `COC(=O)c1c(C)[nH]c(C(=O)NCCc2ccc(S(N)(=O)=O)cc2)c1C`, for which the “hERG current change (%, negative = inhibition) at 1uM” value was determined as 18.4%.

In the case of `O=C(NCc1ccccc1)c1ccc(NC(=O)C2CCCO2)cc1` (stereo not drawn), the “hERG current change (%, negative = inhibition) at 1uM” value is 0.0594%.

Take `Cc1ccc(NC(=O)NCc2ccc3c(c2)OCO3)cc1`: the “hERG current change (%, negative = inhibition) at 1uM” value is reported as -0.265%. The figure for `C/C=C(\C)C(=O)NCCN1C2=NC[C@H](Cc3ccc(O)cc3)N2C[C@H]1Cc1ccc(O)cc1` is 15.5%.

For `O=C(CCC(=O)c1cccs1)NCc1cccc(C(F)(F)F)c1`, the “hERG current change (%, negative = inhibition) at 1uM” value is recorded as 4.3%.

For `CSc1nncn1/N=C/c1ccccc1F`, the “hERG current change (%, negative = inhibition) at 1uM” value stood at 7.89%. On to `CCN=C1S/C(=C\c2cn(CC)c3ccccc23)C(=O)N1CC`, for which the “hERG current change (%, negative = inhibition) at 1uM” value was 0.533%. For `Cc1nn(C)c(C)c1NC(=O)c1ccc(S(=O)(=O)N(C)C)cc1`, the “hERG current change (%, negative = inhibition) at 1uM” value amounted to 10.3%. With `COc1ccc(CNC(N)=O)cc1`, the “hERG current change (%, negative = inhibition) at 1uM” value is listed as -2.86%. As for `COc1ccccc1N(C)S(=O)(=O)c1ccc(Cl)c(C(=O)N2CCC2)c1`, the “hERG current change (%, negative = inhibition) at 1uM” value is recorded as -0.394%. As for `CCOC(=O)c1cc(C)nc(Sc2ccc(C)cc2)c1C#N`, the “hERG current change (%, negative = inhibition) at 1uM” value was 8.44%. Turning to `CC(=O)NC(C(=O)NCC(N)=O)C(C)C` (stereo not drawn) (Ac-[ξV]-Gly-NH2), the “hERG current change (%, negative = inhibition) at 1uM” value is on record as 5.93%. With `CCc1c(C)nc2cc(C)[nH]n2c1=O`, the “hERG current change (%, negative = inhibition) at 1uM” value amounted to 10.4%. Consider `CC1=Nc2cc(C(=O)NCCCOC(C)C)ccc2Sc2ccc(C)cc21`, for which the “hERG current change (%, negative = inhibition) at 1uM” value was found to be 1.49%. Regarding `Cc1c(C(=O)Nc2cc(F)cc(F)c2)cnn1-c1ccccc1`, the “hERG current change (%, negative = inhibition) at 1uM” value worked out at 21.2%. In the case of `CN(C)c1nc(NCc2ccccc2)nc(SCC(=O)Nc2ccccc2)n1`, the “hERG current change (%, negative = inhibition) at 1uM” value worked out at 14.5%. Take `Cc1ncc(CSc2nnnn2-c2ccccc2)c(N)n1`: the “hERG current change (%, negative = inhibition) at 1uM” value was 15.2%. Regarding `CCOC(=O)c1cc(OC(=O)c2ccccc2Br)n(-c2ccccc2)n1`, the “hERG current change (%, negative = inhibition) at 1uM” value is given as -15.2%. Take `Cc1nc(SCC(=O)Nc2ccc3c(c2)OCCO3)nc(C)c1C`: the “hERG current change (%, negative = inhibition) at 1uM” value stood at 19.7%. As to `O=C(Nc1nc2ccccc2s1)c1ccc(Cl)s1`, the “hERG current change (%, negative = inhibition) at 1uM” value is reported as -0.0455%. Take `COc1cccc(Nc2ccc(C(=O)O)cc2[N+](=O)[O-])c1`: the “hERG current change (%, negative = inhibition) at 1uM” value amounted to 9.59%.

For the compound `CCOC(=O)N1CCN(CC(=O)c2ccc(O)cc2O)CC1`, the “hERG current change (%, negative = inhibition) at 1uM” value was determined as 8.27%. With `CCC(CC)N=C1NS(=O)(=O)c2cc([N+](=O)[O-])ccc21`, the “hERG current change (%, negative = inhibition) at 1uM” value is given as 10.8%. Turning to `COc1ccccc1N1C(=O)CC(N(O)c2ccccc2)C1=O` (stereo not drawn), the “hERG current change (%, negative = inhibition) at 1uM” value came to 27.7%.

On to `COc1cccc(CN2CCN(C(=O)c3ccc(-c4ccccc4)cc3)CC2)c1`, for which the “hERG current change (%, negative = inhibition) at 1uM” value is 4.67%. The figure for `CCOC(=O)Cn1cc(C(=O)C(C)(C)C)c2ccccc21` is 7.26%; for `COc1ccc(NC(=O)Cn2nc3n(c2=S)CCC3)cc1` it is 12.3%; for `COc1cccc(C(=O)COc2ccccc2-c2ccccc2)c1` it is 2.12%. On to `O=C1Nc2cc(C(=O)NCCCN3CCCC3)ccc2S/C1=C/c1ccccc1F`, for which the “hERG current change (%, negative = inhibition) at 1uM” value was -31%. Next, `c1cc(-n2cnnn2)ccc1NC1=NCCC1`: 15.4%.

Take `Cc1n[nH]c(C)c1S(=O)(=O)N1CCCC(C(=O)NCc2cccs2)C1` (stereo not drawn): the “hERG current change (%, negative = inhibition) at 1uM” value is 6.14%.

With `O=C(NCC(=O)N1CCCCC1)c1ccc(Br)o1`, the “hERG current change (%, negative = inhibition) at 1uM” value worked out at 11.7%.

For `Cc1cc(C)cc(NC(=O)c2cc3c(=O)n4ccccc4nc3s2)c1`, the “hERG current change (%, negative = inhibition) at 1uM” value turned out to be 8.07%. Next, `COc1cccc(-c2csc(N3CCN(C(=S)Nc4cccc(Cl)c4)CC3)n2)c1`: 10.6%; `Nc1c(-c2ccc(Cl)cc2)cnc2ncnn12`: 1.49%.

As to `COc1ccc(NC(=O)C2CCCN(c3c4c(nc5ncnn35)CCC4)C2)cc1OC` (stereo not drawn), the “hERG current change (%, negative = inhibition) at 1uM” value came to 0.336%. As to `Cc1c(NC(=O)c2coc(=O)c(Br)c2)c(=O)n(-c2ccccc2)n1C`, the “hERG current change (%, negative = inhibition) at 1uM” value was found to be 3.64%.

Turning to `Cc1cccc(-c2cc(C(=O)Nc3c(C)n(C)n(-c4ccccc4)c3=O)c3ccccc3n2)c1`, the “hERG current change (%, negative = inhibition) at 1uM” value worked out at 9.94%. As for `COc1ccc(CC(=O)NNS(=O)(=O)c2ccccc2)cc1OC`, the “hERG current change (%, negative = inhibition) at 1uM” value amounted to 10.5%. Next, `COc1ccc(CCN(C)C/C=C/c2ccccc2[N+](=O)[O-])cc1OC`: -54.3%; `COc1ccc(CCNC(=O)c2oc3ccc(OC)cc3c2C)cc1`: 6.61%. For `CCCCN1C(=O)/C(=C2\SC(N3CCOCC3)=NC2=O)c2ccccc21`, the “hERG current change (%, negative = inhibition) at 1uM” value came out at 14.4%. Next, `C(=Nc1ccc(Nc2ccccc2)cc1)c1ccc2ccccc2c1`: 14.6%; `COc1ccccc1OCCNC(=O)c1ccc(C)o1`: 8.63%.
